{
  "source": "patent US20070148124A1",
  "about": "“Cellulose and acrylic based polymers and the use thereof for the treatment of infectious diseases” (priority 2004, published 2007)",
  "tested_on": "cell-to-cell fusion mediated by HIV-1 envelope glycoprotein and CD4",
  "assay": "microbe, parasite or virus in culture",
  "type": "cell-based",
  "settings": "Human immunodeficiency virus 1",
  "data": [
    {"smiles": "c1cc(CN2CCCNCCNCCCNCC2)ccc1CN1CCCNCCNCCCNCC1", "note": "[AMD 3100]", "values": [
      {"measurement": "IC50", "result": 2, "unit": "nM"},
      {"measurement": "IC90", "result": 7, "unit": "nM"}
    ]}
  ]
}
